Reference: the supplement of paper PMC4996465
Viability of KB3-1 and Nalm-6 cells after 48 h of drug alone (CellTiter-Glo), 11 doses over about 4.5 log units. % of DMSO wells, lower = more cell loss; AC50 from the fitted curve, lower = more potent. No active / inactive call. Nalm-6 was screened in two runs. AC50 is listed only for well-fitted inhibitory curves. KB3-1 is a HeLa-derived carcinoma line, Nalm-6 a B-cell precursor leukaemia line.

Experiments:
[1] = test system: Nalm-6; assay: viability (% of DMSO control); higher = more viable cells
Experimental: (§1)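 Eleven-dose screen of the NCATS MIPE 3 library on cells without co-treatment; CellTiter-Glo after 48 h, as % of DMSO wells.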

[2] = test system: Nalm-6; assay: log AC50 of viability decrease (48 h) (log10 M); higher = less potent
Experimental: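 Eleven-dose screen of the NCATS MIPE 3 library on cells without co-treatment; CellTiter-Glo after 48 h. AC50 from the curve fit; only inhibitory curves of the better fit classes are listed.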

[3] = test system: KB3-1; assay: viability (% of DMSO control); higher = more viable cells
Experimental: as §1

CC(=O)O.Cc1c(-c2ccc(O)cc2)n(Cc2ccc(OCCN3CCCCCC3)cc2)c2ccc(O)cc12 [Bazedoxifene]
viability ([1]; run: 1, 0.00078 µM): 101%
viability ([1]; run: 1, 0.00234 µM): 107%
viability ([1]; run: 1, 0.00702 µM): 107%
viability ([1]; run: 1, 0.0211 µM): 108%
viability ([1]; run: 1, 0.0632 µM): 102%
viability ([1]; run: 1, 0.19 µM): 101%
viability ([1]; run: 1, 0.569 µM): 108%
viability ([1]; run: 1, 1.71 µM): 88.4%
viability ([1]; run: 1, 5.12 µM): 99.9%
viability ([1]; run: 1, 15.4 µM): 70.3%
viability ([1]; run: 1, 46.1 µM): 2.39%
viability ([1]; run: 2, 0.00078 µM): 108%
viability ([1]; run: 2, 0.00234 µM): 103%
viability ([1]; run: 2, 0.00702 µM): 107%
viability ([1]; run: 2, 0.0211 µM): 101%
viability ([1]; run: 2, 0.0632 µM): 107%
viability ([1]; run: 2, 0.19 µM): 103%
viability ([1]; run: 2, 0.569 µM): 107%
viability ([1]; run: 2, 1.71 µM): 98.8%
viability ([1]; run: 2, 5.12 µM): 106%
viability ([1]; run: 2, 15.4 µM): 76%
viability ([1]; run: 2, 46.1 µM): 3.14%
log AC50 of viability decrease ([2]; run: 1): -4.73
log AC50 of viability decrease ([2]; run: 2): -4.58

COc1cccc2c1C(=O)c1c(O)c3c(c(O)c1C2=O)C[C@@](O)(C(=O)CO)C[C@@H]3O[C@H]1C[C@H](N)[C@H](O)[C@H](C)O1 [Doxorubicin]
viability ([1]; run: 1, 0.00078 µM): 101%
viability ([1]; run: 1, 0.00234 µM): 100%
viability ([1]; run: 1, 0.00702 µM): 67.4%
viability ([1]; run: 1, 0.0211 µM): 46.4%
viability ([1]; run: 1, 0.0632 µM): 9.31%
viability ([1]; run: 1, 0.19 µM): 7.02%
viability ([1]; run: 1, 0.569 µM): 5.01%
viability ([1]; run: 1, 1.71 µM): 4.81%
viability ([1]; run: 1, 5.12 µM): 5.79%
viability ([1]; run: 1, 15.4 µM): 12.4%
viability ([1]; run: 1, 46.1 µM): 33.2%
viability ([1]; run: 2, 0.00078 µM): 108%
viability ([1]; run: 2, 0.00234 µM): 103%
viability ([1]; run: 2, 0.00702 µM): 84.2%
viability ([1]; run: 2, 0.0211 µM): 36.9%
viability ([1]; run: 2, 0.0632 µM): 8.3%
viability ([1]; run: 2, 0.19 µM): 5.76%
viability ([1]; run: 2, 0.569 µM): 5.46%
viability ([1]; run: 2, 1.71 µM): 5.58%
viability ([1]; run: 2, 5.12 µM): 9.75%
viability ([1]; run: 2, 15.4 µM): 21.2%
viability ([1]; run: 2, 46.1 µM): 43.6%
log AC50 of viability decrease ([2]; run: 1): -7.93
log AC50 of viability decrease ([2]; run: 2): -7.93

NC/1=N/C(=O)N(/C=C1)[C@@H]2O[C@H](CO)[C@@H](O)C2(F)F [Gemcitabine]
viability ([1]; run: 1, 0.00156 µM): 94.3%
viability ([1]; run: 1, 0.00468 µM): 67.8%
viability ([1]; run: 1, 0.014 µM): 53.7%
viability ([1]; run: 1, 0.0421 µM): 41.2%
viability ([1]; run: 1, 0.126 µM): 36.9%
viability ([1]; run: 1, 0.379 µM): 31.6%
viability ([1]; run: 1, 1.14 µM): 27.8%
viability ([1]; run: 1, 3.41 µM): 19.7%
viability ([1]; run: 1, 10.2 µM): 13.2%
viability ([1]; run: 1, 30.7 µM): 6.7%
viability ([1]; run: 1, 92.2 µM): 3.99%
viability ([1]; run: 2, 0.00156 µM): 98.1%
viability ([1]; run: 2, 0.00468 µM): 68.5%
viability ([1]; run: 2, 0.014 µM): 48.7%
viability ([1]; run: 2, 0.0421 µM): 35.9%
viability ([1]; run: 2, 0.126 µM): 29.3%
viability ([1]; run: 2, 0.379 µM): 25.3%
viability ([1]; run: 2, 1.14 µM): 18.6%
viability ([1]; run: 2, 3.41 µM): 10.1%
viability ([1]; run: 2, 10.2 µM): 7.39%
viability ([1]; run: 2, 30.7 µM): 5.9%
viability ([1]; run: 2, 92.2 µM): 5.91%
log AC50 of viability decrease ([2]; run: 1): -7.72
log AC50 of viability decrease ([2]; run: 2): -7.92

CN[C@@H](C)C(=O)N[C@H]1CCCC[C@H]2CC[C@@H](C(=O)N[C@@H](c3ccccc3)c3cn(CCCCc4ccc(CCCCn5cc([C@@H](NC(=O)[C@@H]6CC[C@@H]7CCCC[C@H](NC(=O)[C@H](C)NC)C(=O)N76)c6ccccc6)nn5)cc4)nn3)N2C1=O [SM-164]
viability ([3]; 0.00078 µM): 79.2%
viability ([3]; 0.00234 µM): 72.4%
viability ([3]; 0.00702 µM): 73.9%
viability ([3]; 0.0211 µM): 70.2%
viability ([3]; 0.0632 µM): 70.1%
viability ([3]; 0.19 µM): 61.9%
viability ([3]; 0.569 µM): 62.8%
viability ([3]; 1.71 µM): 69.7%
viability ([3]; 5.12 µM): 66.3%
viability ([3]; 15.4 µM): 73.4%
viability ([3]; 46.1 µM): 0.426%
viability ([1]; run: 1, 0.00078 µM): 94.6%
viability ([1]; run: 1, 0.00234 µM): 96%
viability ([1]; run: 1, 0.00702 µM): 96.6%
viability ([1]; run: 1, 0.0211 µM): 92.6%
viability ([1]; run: 1, 0.0632 µM): 51.2%
viability ([1]; run: 1, 0.19 µM): 89.4%
viability ([1]; run: 1, 0.569 µM): 91.4%
viability ([1]; run: 1, 1.71 µM): 72.8%
viability ([1]; run: 1, 5.12 µM): 83.3%
viability ([1]; run: 1, 15.4 µM): 70.5%
viability ([1]; run: 1, 46.1 µM): 64.6%
viability ([1]; run: 2, 0.00078 µM): 94%
viability ([1]; run: 2, 0.00234 µM): 98.1%
viability ([1]; run: 2, 0.00702 µM): 92.6%
viability ([1]; run: 2, 0.0211 µM): 88%
viability ([1]; run: 2, 0.0632 µM): 87%
viability ([1]; run: 2, 0.19 µM): 96.2%
viability ([1]; run: 2, 0.569 µM): 80.5%
viability ([1]; run: 2, 1.71 µM): 88.7%
viability ([1]; run: 2, 5.12 µM): 89%
viability ([1]; run: 2, 15.4 µM): 77.7%
viability ([1]; run: 2, 46.1 µM): 70.9%

CC(C)=CCC/C(C)=C/CC/C(C)=C/CSc1ccccc1C(=O)O [Salirasib]
viability ([3]; 0.00078 µM): 101%
viability ([3]; 0.00234 µM): 96.8%
viability ([3]; 0.00702 µM): 99.1%
viability ([3]; 0.0211 µM): 100%
viability ([3]; 0.0632 µM): 103%
viability ([3]; 0.19 µM): 98%
viability ([3]; 0.569 µM): 97.9%
viability ([3]; 1.71 µM): 102%
viability ([3]; 5.12 µM): 105%
viability ([3]; 15.4 µM): 97.9%
viability ([3]; 46.1 µM): 98.9%
viability ([1]; run: 1, 0.00078 µM): 94.4%
viability ([1]; run: 1, 0.00234 µM): 106%
viability ([1]; run: 1, 0.00702 µM): 101%
viability ([1]; run: 1, 0.0211 µM): 111%
viability ([1]; run: 1, 0.0632 µM): 104%
viability ([1]; run: 1, 0.19 µM): 120%
viability ([1]; run: 1, 0.569 µM): 103%
viability ([1]; run: 1, 1.71 µM): 107%
viability ([1]; run: 1, 5.12 µM): 107%
viability ([1]; run: 1, 15.4 µM): 116%
viability ([1]; run: 1, 46.1 µM): 104%
viability ([1]; run: 2, 0.00078 µM): 102%
viability ([1]; run: 2, 0.00234 µM): 105%
viability ([1]; run: 2, 0.00702 µM): 109%
viability ([1]; run: 2, 0.0211 µM): 105%
viability ([1]; run: 2, 0.0632 µM): 102%
viability ([1]; run: 2, 0.19 µM): 103%
viability ([1]; run: 2, 0.569 µM): 106%
viability ([1]; run: 2, 1.71 µM): 108%
viability ([1]; run: 2, 5.12 µM): 110%
viability ([1]; run: 2, 15.4 µM): 108%
viability ([1]; run: 2, 46.1 µM): 60.9%

Cn1cnc2c(F)c(Nc3ccc(Br)cc3Cl)c(C(=O)NOCCO)cc21 [Selumetinib]
viability ([3]; 0.00078 µM): 97.7%
viability ([3]; 0.00234 µM): 101%
viability ([3]; 0.00702 µM): 96.8%
viability ([3]; 0.0211 µM): 96.1%
viability ([3]; 0.0632 µM): 95.9%
viability ([3]; 0.19 µM): 99.5%
viability ([3]; 0.569 µM): 95.8%
viability ([3]; 1.71 µM): 90.9%
viability ([3]; 5.12 µM): 96%
viability ([3]; 15.4 µM): 92.8%
viability ([3]; 46.1 µM): 87.3%
viability ([1]; run: 1, 0.00078 µM): 114%
viability ([1]; run: 1, 0.00234 µM): 121%
viability ([1]; run: 1, 0.00702 µM): 113%
viability ([1]; run: 1, 0.0211 µM): 105%
viability ([1]; run: 1, 0.0632 µM): 112%
viability ([1]; run: 1, 0.19 µM): 105%
viability ([1]; run: 1, 0.569 µM): 107%
viability ([1]; run: 1, 1.71 µM): 102%
viability ([1]; run: 1, 5.12 µM): 104%
viability ([1]; run: 1, 15.4 µM): 81.5%
viability ([1]; run: 1, 46.1 µM): 92.1%
viability ([1]; run: 2, 0.00078 µM): 112%
viability ([1]; run: 2, 0.00234 µM): 108%
viability ([1]; run: 2, 0.00702 µM): 109%
viability ([1]; run: 2, 0.0211 µM): 97.7%
viability ([1]; run: 2, 0.0632 µM): 106%
viability ([1]; run: 2, 0.19 µM): 106%
viability ([1]; run: 2, 0.569 µM): 106%
viability ([1]; run: 2, 1.71 µM): 101%
viability ([1]; run: 2, 5.12 µM): 83%
viability ([1]; run: 2, 15.4 µM): 99.8%
viability ([1]; run: 2, 46.1 µM): 88.9%
